The supplement of paper PMC10126150
Values marked as one replicate rest on one cluster of the flow cell; about a third of the high ones do not repeat.

Test system: ATP
Experiment: switch fluorescence ratio, 500 uM ATP over buffer (Cy3 cluster intensity, sum of 5 cycles each) (fold (ratio)); higher = stronger signal-on switching upon ATP binding; sequences stand for … in TCGTCGGCAGCGTCAGATGTGTATAAGAGACAGTTTTTTTTTTTTTTTTTTTTTTTTT…TC
Details: aptamer strand: ATP DNA aptamer (quencher-CACCTGGGGGAGTATTGCGGAGGAAGG + anchor), 100 nM annealed; ATP concentration: 500 uM; one replicate
In short: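 The fluorescence ratio divides summed target-cycle Cy3 intensity by summed buffer-cycle Cy3 intensity for each cluster and is averaged per switch-domain sequence. Cy3-labelled switching-strand clusters on a modified Illumina MiSeq flow-cell were annealed to 100 nM quencher-labelled ATP aptamer, then imaged in selection buffer and again after 15 min with 500 uM ATP at 22 °C. Five such cycles were run, with NaOH stripping and re-annealing between them, and clusters outside 100-1000 RFU were excluded.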
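Note: ATP exposure 15 min at 22 °C before imaging.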

Sequence | switch fluorescence ratio
AGTTGGGTCC | 0.987
AGTGATACCG | 1.02
GAGGTAGTAT | 1.05
AACATGCATC | 1.02
TACACTGTCT | 1.01
GTGCTGGAAA | 1.05
TTGCTTGGGG | 1.05
TCTCTAAGGT | 1
TCTAACGAGT | 1.03
CAGCCCAGGA | 0.996
TTTAAACTCT | 0.985
AGTGACTCT | 0.985
CGTCGGGCTG | 1.01
TATGGATTTC | 1.01
ATGTATTCTC | 0.99
CCTGCCAACA | 1.67
GGAAGCTAGC | 0.959
CAAATAGGAT | 0.979
TGGTCAAGC | 0.981
GATTAGGTGC | 1.13
AAAATAATA | 0.981
GCACAAGTTT | 0.983
CACGCCTGTT | 1.01

Sequence | switch fluorescence ratio
CCGTATTACC | 2.61
GGCCTTTAAT | 0.968
CGCCAAAGGA | 1.04
CTCAATAGTA | 1.02
TTGAGTGGCG | 0.922
TCAAGCCAT | 1.01
TGTCAGTATG | 1
AAGAAACATG | 1.01
TTTTTGATC | 0.989
ATAGCCCCTG | 1.01
GCAAGATAAT | 0.955
AGACTGTGAA | 1.03
AAGGGAAAC | 0.978
TCTGCAGCCG | 1.02
GATAGTAGGC | 1.06
ATTGTACTCA | 1
GCGACTAAGC | 0.983
TCAGATGGGT | 0.969
GTGAGGAATG | 1.03
TTATTTTGT | 0.989
GGCGAGGGAT | 0.97
GCTTGTATGT | 1.02
TTTTTCGCT | 1.02

Sequence | switch fluorescence ratio
TATGGCATG | 0.992
GCTTACTAA | 1.07
GAATTCCTAT | 0.998
ACCAGAAAGC | 1.1
GGTTTCGAGA | 0.979
TCCGTTATTG | 1.07
TATTAGCGG | 0.983
ATTAGGAACG | 0.95
TCCAAAATGC | 1.76
CACAATTCTG | 1.02
GTTTGGTGCG | 0.99
TTACTAGATT | 1.05
GATAAATCCA | 1.02
ATGTAATCGG | 0.989
CTAGGCCAGG | 1.15
CTGTTCGTCG | 1
GGCGTGAGGG | 1.01
TTTAACATGG | 1.05
GACGAAGAGC | 1.03
GCGTCAATTT | 2.09
ACGTTCGCTG | 1.04
TCGCATTTAT | 1.17
ATCGGCAAAC | 2.07

Sequence | switch fluorescence ratio
GCACTGTCAC | 1.29
AAACGACCGG | 0.954
AATAGGGTCA | 1.02
TAGTAGCTGC | 1.04
AGACCTGCCG | 1
GACGGAATAG | 3.98
TTCACCCGGG | 1.04
AAGATCGCGT | 1.01
CAATTACTCG | 1.1
CTCCGGTGGA | 1.14
GAATCGTTCG | 1.02
GGGCCTTGTT | 1.01
GTAATTAAGT | 0.978
AGTTTC | 0.966
TATTGGGTTA | 0.998
TCTAGTGCAC | 1.03
GTACGCAGC | 1.98
GAAAACAAAC | 1.51
ACGCGACTTT | 1.14
GACAGCGTCT | 1
AAGTGTTATC | 0.984
AAGGAATCTG | 0.98
GACTCGCGCC | 1.61

Sequence | switch fluorescence ratio
GTGTACGAGC | 1.1
GACTAAGAAA | 1.01
ATCTGGTCAC | 0.998
GCGGGCCTAC | 1.1
GGTGGAGACT | 0.987
CAAAATCGAG | 1.02
GTATATCGAT | 1.01
CGGATTGGAG | 1.03
GTTTGACATG | 1.13
CACTCTAAGC | 1.09
CGACAGCCGA | 1.09
GTAGGTTGAA | 0.951
TAGTGATAGT | 1.03
AAATAGTAGA | 1
GGACTCAGAG | 0.913
GAGGAAGAGA | 1.01
CTAGTAGACT | 1.06
CGGGACCGGT | 0.98
TCAGGGGGTA | 1.14
AGAGTTTTGT | 0.971
ATCGGAAGGT | 0.998
TTTTATACAC | 1.03
TCGACGGGGT | 1.14

Sequence | switch fluorescence ratio
TTTCAGTCGT | 1
TCTGTCAGAA | 0.969
GCTCTAATTC | 1.11
ACTATGTTGT | 0.978
TCATCGGTGG | 1.03
ATAGTCATGC | 1.01
TGGCGGGACC | 0.988
GGTGACGGAG | 0.907
ACGCGGGAAG | 1.02
GACGGTTGGT | 0.949
GCGAAAGGGC | 1.03
TGTGGTCCAC | 0.971
GCCCGACTGC | 1.04
AGGTATGCAA | 1.09
GCTCTCGAGT | 1.02
ACCTGAACCA | 1.11
TGGCGTTCCC | 0.957
CCTGCACTGT | 1.15
TGCTCCGACG | 1.85
TGAATGCCTT | 1.03
AAGGTAGCCT | 0.999
ACTTTTGAGA | 0.979
TGCACTCTGT | 0.979

Sequence | switch fluorescence ratio
AACAGTCGAA | 0.984
CCTGTTCACA | 1
GAGGGTAGGA | 0.997
CTAATAGGGG | 1.02
AATGTGAGCC | 1.01
TTTTTAGACA | 1.01
TGTGGCTTCT | 0.935
TTTATTGAT | 1.01
GCTCCGACTA | 4.7
ACTGGGTACA | 1.02
TGCAAACGCT | 1.09
AGGAGTTGTA | 0.969
TTCATGAT | 1.03
TAGGACGAAA | 1.13
AACAAACACG | 1.1
CGCTTTTCAA | 1.04
GAATTCGTTC | 0.952
AACACTTCG | 1.05
CGATCCGG | 1.03
TTCCCAGTCC | 1.04
